# Measurements taken from the supplement of paper PMC8728848.
# The other results are listed elsewhere or left out.
# B1: R410P1E11 (Tachypleus tridentatus), TAL2_TACTR (protein)
# chain: MEKGTPPTHDSDNWMGRAKEIGNGGWDQFQFLFFDPNGYLYAVSNDKLYKASPPQSDTDNWIARATEIGSGGWSGFKFLFFHPNGYLYAVRGQRFYKALPPVSNQD
# Key:
# Test in all cases: glycan array binding signal (z-score within array); higher = stronger binding
# Details in all cases: glycan notation: IUPAC condensed, linker removed
# Gal3S(b1-4)GlcNAc = biological target: Gal3S(b1-4)GlcNAc
# Summary of the method: (§1)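 The Consortium for Functional Glycomics database supplied 3228 glycan arrays, of which those lacking an available protein sequence were dropped. The binding signal, a within-array Z-score, was averaged across arrays of the same protein sequence and across linkers. Negative scores can be read as non-binding.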
# Gal3S(b1-4)GlcNAc6S = biological target: Gal3S(b1-4)GlcNAc6S
# Summary of the method: as §1
# [1] = biological target: Gal3S(b1-4)[Fuc(a1-3)]Glc
# Summary of the method: as §1
# Gal3S4S(b1-4)GlcNAc = biological target: Gal3S4S(b1-4)GlcNAc
# Summary of the method: as §1
# Gal3S6S(b1-4)GlcNAc = biological target: Gal3S6S(b1-4)GlcNAc
# Summary of the method: as §1
# Gal3S6S(b1-4)GlcNAc6S = biological target: Gal3S6S(b1-4)GlcNAc6S
# Summary of the method: as §1
# Gal4S(b1-4)GlcNAc = biological target: Gal4S(b1-4)GlcNAc
# Summary of the method: as §1
# Gal4S6S(b1-4)GlcNAc = biological target: Gal4S6S(b1-4)GlcNAc
# Summary of the method: as §1
# Gal6S(b1-4)Glc = biological target: Gal6S(b1-4)Glc
# Summary of the method: as §1
# Gal6S(b1-4)Glc6S = biological target: Gal6S(b1-4)Glc6S
# Summary of the method: as §1
# Gal6S(b1-4)GlcNAc = biological target: Gal6S(b1-4)GlcNAc
# Summary of the method: as §1
# Gal6S(b1-4)GlcNAc6S = biological target: Gal6S(b1-4)GlcNAc6S
# Summary of the method: as §1
# GalNAc(a1-3)Gal = biological target: GalNAc(a1-3)Gal
# Summary of the method: as §1
# GalNAc(a1-3)GalNAc = biological target: GalNAc(a1-3)GalNAc
# Summary of the method: as §1
# GalNAc(b1-3)Gal = biological target: GalNAc(b1-3)Gal
# Summary of the method: as §1
# [2] = biological target: GalNAc(b1-3)Gal(a1-4)Gal(b1-4)GlcNAc
# Summary of the method: as §1
# GalNAc(b1-3)GalNAc = biological target: GalNAc(b1-3)GalNAc
# Summary of the method: as §1
# GalNAc(b1-4)GlcNAc = biological target: GalNAc(b1-4)GlcNAc
# Summary of the method: as §1
# Glc(a1-4)Glc = biological target: Glc(a1-4)Glc
# Summary of the method: as §1
# Glc(a1-6)Glc(a1-6)Glc = biological target: Glc(a1-6)Glc(a1-6)Glc
# Summary of the method: as §1
# Glc(b1-4)Glc = biological target: Glc(b1-4)Glc
# Summary of the method: as §1
# Glc(b1-6)Glc = biological target: Glc(b1-6)Glc
# Summary of the method: as §1
# GlcA(b1-3)Gal = biological target: GlcA(b1-3)Gal
# Summary of the method: as §1
# GlcA(b1-3)GlcNAc = biological target: GlcA(b1-3)GlcNAc
# Summary of the method: as §1
# GlcA(b1-6)Gal = biological target: GlcA(b1-6)Gal
# Summary of the method: as §1
# [3] = biological target: GlcNAc(a1-3)Gal(b1-4)GlcNAc
# Summary of the method: as §1
# [4] = biological target: GlcNAc(a1-6)Gal(b1-4)GlcNAc
# Summary of the method: as §1
# [5] = biological target: GlcNAc(b1-2)Gal(b1-3)GalNAc
# Summary of the method: as §1
# [6] = biological target: GlcNAc(b1-2)Man(a1-3)[GlcNAc(b1-2)Man(a1-6)]Man(b1-4)GlcNAc(b1-4)GlcNAc
# Summary of the method: as §1
# GlcNAc(b1-3)Gal = biological target: GlcNAc(b1-3)Gal
# Summary of the method: as §1
# [7] = biological target: GlcNAc(b1-3)Gal(b1-3)GalNAc
# Summary of the method: as §1
# GlcNAc(b1-3)Gal(b1-4)Glc = biological target: GlcNAc(b1-3)Gal(b1-4)Glc
# Summary of the method: as §1
# [8] = biological target: GlcNAc(b1-3)Gal(b1-4)GlcNAc
# Summary of the method: as §1
# [9] = biological target: GlcNAc(b1-3)Gal(b1-4)GlcNAc(b1-3)Gal(b1-4)GlcNAc
# Summary of the method: as §1
# GlcNAc(b1-3)GalNAc = biological target: GlcNAc(b1-3)GalNAc
# Summary of the method: as §1
# GlcNAc(b1-3)Man = biological target: GlcNAc(b1-3)Man
# Summary of the method: as §1
# [10] = biological target: GlcNAc(b1-3)[GlcNAc(b1-4)][GlcNAc(b1-6)]GlcNAc
# Summary of the method: as §1
# [11] = biological target: GlcNAc(b1-3)[GlcNAc(b1-6)]Gal(b1-4)GlcNAc
# Summary of the method: as §1
# [12] = biological target: GlcNAc(b1-3)[GlcNAc(b1-6)]GalNAc
# Summary of the method: as §1
# [13] = biological target: GlcNAc(b1-4)Gal(b1-4)GlcNAc
# Summary of the method: as §1
# GlcNAc(b1-4)GlcNAc = biological target: GlcNAc(b1-4)GlcNAc
# Summary of the method: as §1
# [14] = biological target: GlcNAc(b1-4)GlcNAc(b1-4)GlcNAc
# Summary of the method: as §1
# [15] = biological target: GlcNAc(b1-4)GlcNAc(b1-4)GlcNAc(b1-4)GlcNAc(b1-4)GlcNAc
# Summary of the method: as §1
# [16] = biological target: GlcNAc(b1-4)GlcNAc(b1-4)GlcNAc(b1-4)GlcNAc(b1-4)GlcNAc(b1-4)GlcNAc
# Summary of the method: as §1
# [17] = biological target: GlcNAc(b1-4)[GlcNAc(b1-6)]GalNAc
# Summary of the method: as §1
binder,measurement,setting,value
B1,glycan array binding signal (z-score),Gal3S(b1-4)GlcNAc,-0.395
same,glycan array binding signal (z-score),Gal3S(b1-4)GlcNAc6S,-0.076
same,glycan array binding signal (z-score),[1],-0.288
same,glycan array binding signal (z-score),Gal3S4S(b1-4)GlcNAc,-0.473
same,glycan array binding signal (z-score),Gal3S6S(b1-4)GlcNAc,0.352
same,glycan array binding signal (z-score),Gal3S6S(b1-4)GlcNAc6S,0.451
same,glycan array binding signal (z-score),Gal4S(b1-4)GlcNAc,-0.54
same,glycan array binding signal (z-score),Gal4S6S(b1-4)GlcNAc,-0.484
same,glycan array binding signal (z-score),Gal6S(b1-4)Glc,-0.313
same,glycan array binding signal (z-score),Gal6S(b1-4)Glc6S,-0.329
same,glycan array binding signal (z-score),Gal6S(b1-4)GlcNAc,-0.276
same,glycan array binding signal (z-score),Gal6S(b1-4)GlcNAc6S,-0.125
same,glycan array binding signal (z-score),GalNAc(a1-3)Gal,7.43
same,glycan array binding signal (z-score),GalNAc(a1-3)GalNAc,0.599
same,glycan array binding signal (z-score),GalNAc(b1-3)Gal,-0.653
same,glycan array binding signal (z-score),[2],-0.37
same,glycan array binding signal (z-score),GalNAc(b1-3)GalNAc,-0.187
same,glycan array binding signal (z-score),GalNAc(b1-4)GlcNAc,0.259
same,glycan array binding signal (z-score),Glc(a1-4)Glc,0.175
same,glycan array binding signal (z-score),Glc(a1-6)Glc(a1-6)Glc,-0.055
same,glycan array binding signal (z-score),Glc(b1-4)Glc,-0.032
same,glycan array binding signal (z-score),Glc(b1-6)Glc,-0.481
same,glycan array binding signal (z-score),GlcA(b1-3)Gal,-0.17
same,glycan array binding signal (z-score),GlcA(b1-3)GlcNAc,2.42
same,glycan array binding signal (z-score),GlcA(b1-6)Gal,-0.188
same,glycan array binding signal (z-score),[3],3.25
same,glycan array binding signal (z-score),[4],10.1
same,glycan array binding signal (z-score),[5],-0.568
same,glycan array binding signal (z-score),[6],-0.589
same,glycan array binding signal (z-score),GlcNAc(b1-3)Gal,-0.332
same,glycan array binding signal (z-score),[7],0.13
same,glycan array binding signal (z-score),GlcNAc(b1-3)Gal(b1-4)Glc,-0.331
same,glycan array binding signal (z-score),[8],0.303
same,glycan array binding signal (z-score),[9],0.435
same,glycan array binding signal (z-score),GlcNAc(b1-3)GalNAc,0.631
same,glycan array binding signal (z-score),GlcNAc(b1-3)Man,-0.405
same,glycan array binding signal (z-score),[10],-0.342
same,glycan array binding signal (z-score),[11],-0.201
same,glycan array binding signal (z-score),[12],-0.242
same,glycan array binding signal (z-score),[13],-0.553
same,glycan array binding signal (z-score),GlcNAc(b1-4)GlcNAc,0.596
same,glycan array binding signal (z-score),[14],-0.068
same,glycan array binding signal (z-score),[15],-0.431
same,glycan array binding signal (z-score),[16],-0.227
same,glycan array binding signal (z-score),[17],0.461
